The full data set covers some 21,000 targets. This sample favours those with the largest changes.

Compound in this assay: Cc1cc(ccc1-c1ccccc1)C(=O)N1CCCN(CC1)C(=O)CCl [compound 10]
The assay can be described thus: probe-labelled cysteine peptide fold change vs DMSO (competition) (log2 fold change); higher = less target engagement (more negative = stronger competition). The settings on record: THP-1, incubation time: 4 h.
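Also: competitive profiling in live THP-1 cells: cysteine peptides tagged with an iodoacetamide desthiobiotin (IA-DTB) probe, intensity after compound treatment relative to DMSO-treated cells.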

Chain of UniProt Q9NYF8 (Q9NYF8 whole entry, looked up): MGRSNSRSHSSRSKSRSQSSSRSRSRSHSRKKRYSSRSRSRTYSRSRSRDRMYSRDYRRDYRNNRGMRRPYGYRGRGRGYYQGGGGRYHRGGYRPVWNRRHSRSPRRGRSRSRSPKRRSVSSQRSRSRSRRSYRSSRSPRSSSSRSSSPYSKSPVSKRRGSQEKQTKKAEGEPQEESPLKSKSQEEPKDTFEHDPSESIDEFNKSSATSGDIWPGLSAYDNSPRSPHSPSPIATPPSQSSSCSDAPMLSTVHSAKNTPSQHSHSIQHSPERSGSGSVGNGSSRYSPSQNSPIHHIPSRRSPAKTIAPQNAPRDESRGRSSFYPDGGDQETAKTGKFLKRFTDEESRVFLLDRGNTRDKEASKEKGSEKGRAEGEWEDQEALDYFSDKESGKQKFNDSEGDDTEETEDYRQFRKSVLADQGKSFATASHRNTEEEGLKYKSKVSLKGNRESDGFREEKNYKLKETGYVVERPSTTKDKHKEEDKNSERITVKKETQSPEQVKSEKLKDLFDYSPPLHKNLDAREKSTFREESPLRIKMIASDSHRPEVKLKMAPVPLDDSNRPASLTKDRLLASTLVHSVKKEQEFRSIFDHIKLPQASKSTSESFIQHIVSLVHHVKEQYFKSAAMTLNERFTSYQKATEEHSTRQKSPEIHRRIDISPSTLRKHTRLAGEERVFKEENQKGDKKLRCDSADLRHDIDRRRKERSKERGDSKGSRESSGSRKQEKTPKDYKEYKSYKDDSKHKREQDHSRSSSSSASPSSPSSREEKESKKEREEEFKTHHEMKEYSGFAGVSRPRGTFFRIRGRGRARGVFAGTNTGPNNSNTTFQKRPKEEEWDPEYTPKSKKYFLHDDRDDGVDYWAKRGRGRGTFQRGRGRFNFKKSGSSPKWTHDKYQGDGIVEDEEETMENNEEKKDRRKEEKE
Chain of UniProt Q9HCU9 (Q9HCU9 whole entry, looked up): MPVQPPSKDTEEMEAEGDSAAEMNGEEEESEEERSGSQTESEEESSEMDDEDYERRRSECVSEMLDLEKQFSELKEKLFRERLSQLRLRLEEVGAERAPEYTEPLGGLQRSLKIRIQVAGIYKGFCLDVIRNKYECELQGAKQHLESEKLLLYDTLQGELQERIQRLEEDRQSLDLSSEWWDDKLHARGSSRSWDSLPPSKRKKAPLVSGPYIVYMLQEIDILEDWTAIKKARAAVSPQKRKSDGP
Chain of UniProt O75081 (O75081 whole entry, looked up): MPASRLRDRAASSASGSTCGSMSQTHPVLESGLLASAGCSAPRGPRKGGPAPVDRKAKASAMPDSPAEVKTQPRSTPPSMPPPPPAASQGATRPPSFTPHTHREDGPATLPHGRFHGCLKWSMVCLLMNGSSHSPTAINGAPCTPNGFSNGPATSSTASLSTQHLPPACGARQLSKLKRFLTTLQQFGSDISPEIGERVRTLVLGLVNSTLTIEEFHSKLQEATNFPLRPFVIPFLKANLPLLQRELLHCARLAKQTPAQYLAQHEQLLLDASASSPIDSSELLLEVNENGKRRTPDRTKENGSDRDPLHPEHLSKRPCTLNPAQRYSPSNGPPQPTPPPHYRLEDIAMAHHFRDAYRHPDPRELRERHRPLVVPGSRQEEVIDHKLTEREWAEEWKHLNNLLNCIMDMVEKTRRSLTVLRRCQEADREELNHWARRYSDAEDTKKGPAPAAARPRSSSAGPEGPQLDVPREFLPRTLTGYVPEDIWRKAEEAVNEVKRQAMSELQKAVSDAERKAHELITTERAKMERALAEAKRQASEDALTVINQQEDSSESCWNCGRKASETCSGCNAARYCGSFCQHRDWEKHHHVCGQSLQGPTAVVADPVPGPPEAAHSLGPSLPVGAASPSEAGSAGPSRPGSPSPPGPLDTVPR
Chain of UniProt P30530 (P30530 whole entry, looked up): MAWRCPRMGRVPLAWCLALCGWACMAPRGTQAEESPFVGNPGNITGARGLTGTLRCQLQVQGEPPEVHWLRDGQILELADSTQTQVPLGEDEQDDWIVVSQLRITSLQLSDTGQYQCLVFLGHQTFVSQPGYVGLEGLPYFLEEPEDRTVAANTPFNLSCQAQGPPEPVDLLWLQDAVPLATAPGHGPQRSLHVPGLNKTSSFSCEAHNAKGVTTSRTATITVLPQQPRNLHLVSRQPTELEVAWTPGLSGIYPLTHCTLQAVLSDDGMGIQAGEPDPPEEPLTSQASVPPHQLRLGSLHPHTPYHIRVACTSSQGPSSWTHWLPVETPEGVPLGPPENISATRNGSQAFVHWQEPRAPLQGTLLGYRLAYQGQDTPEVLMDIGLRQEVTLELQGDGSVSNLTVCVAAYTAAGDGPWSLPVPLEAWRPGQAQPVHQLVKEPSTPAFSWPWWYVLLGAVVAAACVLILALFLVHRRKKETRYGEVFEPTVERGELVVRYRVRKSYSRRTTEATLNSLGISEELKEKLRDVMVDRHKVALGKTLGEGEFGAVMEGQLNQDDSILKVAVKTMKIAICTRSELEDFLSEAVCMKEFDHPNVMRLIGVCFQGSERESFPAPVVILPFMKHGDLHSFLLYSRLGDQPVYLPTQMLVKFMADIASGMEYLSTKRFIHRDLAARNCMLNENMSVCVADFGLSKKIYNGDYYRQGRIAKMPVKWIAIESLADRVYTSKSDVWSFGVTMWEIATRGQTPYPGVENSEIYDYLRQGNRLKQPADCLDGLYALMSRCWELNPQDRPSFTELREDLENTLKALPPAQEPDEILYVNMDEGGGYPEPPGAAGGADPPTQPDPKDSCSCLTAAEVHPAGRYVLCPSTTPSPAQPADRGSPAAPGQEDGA
Chain of UniProt Q10588 (Q10588 whole entry, looked up): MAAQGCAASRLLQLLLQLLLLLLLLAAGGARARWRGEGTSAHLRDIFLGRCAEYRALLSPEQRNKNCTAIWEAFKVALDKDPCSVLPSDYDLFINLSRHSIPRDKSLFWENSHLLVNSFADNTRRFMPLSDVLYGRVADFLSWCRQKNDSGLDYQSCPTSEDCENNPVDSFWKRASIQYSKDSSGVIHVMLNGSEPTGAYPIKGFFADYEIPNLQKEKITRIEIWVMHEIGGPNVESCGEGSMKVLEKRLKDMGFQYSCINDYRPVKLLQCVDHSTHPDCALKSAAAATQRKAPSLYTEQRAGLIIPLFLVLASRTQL
Chain of UniProt Q9Y696 (Q9Y696 whole entry, looked up): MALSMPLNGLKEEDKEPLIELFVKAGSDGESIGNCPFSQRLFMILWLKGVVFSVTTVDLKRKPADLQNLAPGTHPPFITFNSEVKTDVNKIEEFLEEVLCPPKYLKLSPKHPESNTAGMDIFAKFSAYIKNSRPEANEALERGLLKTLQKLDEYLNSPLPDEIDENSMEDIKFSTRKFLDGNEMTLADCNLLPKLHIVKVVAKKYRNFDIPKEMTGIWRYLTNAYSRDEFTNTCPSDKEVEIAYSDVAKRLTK
Chain of UniProt Q9Y6K0 (Q9Y6K0 whole entry, looked up): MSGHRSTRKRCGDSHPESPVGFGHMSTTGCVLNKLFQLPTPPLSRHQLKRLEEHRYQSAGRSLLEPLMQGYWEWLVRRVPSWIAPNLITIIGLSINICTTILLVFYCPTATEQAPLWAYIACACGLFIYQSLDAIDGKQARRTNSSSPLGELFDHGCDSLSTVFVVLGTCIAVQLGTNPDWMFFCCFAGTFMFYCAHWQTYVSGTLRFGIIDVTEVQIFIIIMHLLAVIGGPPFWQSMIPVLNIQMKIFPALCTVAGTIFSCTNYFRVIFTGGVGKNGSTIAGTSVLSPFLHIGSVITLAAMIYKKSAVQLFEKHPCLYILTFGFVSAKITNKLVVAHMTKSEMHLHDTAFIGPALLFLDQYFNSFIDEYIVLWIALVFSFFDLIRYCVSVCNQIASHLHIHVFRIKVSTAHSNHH
Chain of UniProt Q86VP6 (Q86VP6 whole entry, looked up): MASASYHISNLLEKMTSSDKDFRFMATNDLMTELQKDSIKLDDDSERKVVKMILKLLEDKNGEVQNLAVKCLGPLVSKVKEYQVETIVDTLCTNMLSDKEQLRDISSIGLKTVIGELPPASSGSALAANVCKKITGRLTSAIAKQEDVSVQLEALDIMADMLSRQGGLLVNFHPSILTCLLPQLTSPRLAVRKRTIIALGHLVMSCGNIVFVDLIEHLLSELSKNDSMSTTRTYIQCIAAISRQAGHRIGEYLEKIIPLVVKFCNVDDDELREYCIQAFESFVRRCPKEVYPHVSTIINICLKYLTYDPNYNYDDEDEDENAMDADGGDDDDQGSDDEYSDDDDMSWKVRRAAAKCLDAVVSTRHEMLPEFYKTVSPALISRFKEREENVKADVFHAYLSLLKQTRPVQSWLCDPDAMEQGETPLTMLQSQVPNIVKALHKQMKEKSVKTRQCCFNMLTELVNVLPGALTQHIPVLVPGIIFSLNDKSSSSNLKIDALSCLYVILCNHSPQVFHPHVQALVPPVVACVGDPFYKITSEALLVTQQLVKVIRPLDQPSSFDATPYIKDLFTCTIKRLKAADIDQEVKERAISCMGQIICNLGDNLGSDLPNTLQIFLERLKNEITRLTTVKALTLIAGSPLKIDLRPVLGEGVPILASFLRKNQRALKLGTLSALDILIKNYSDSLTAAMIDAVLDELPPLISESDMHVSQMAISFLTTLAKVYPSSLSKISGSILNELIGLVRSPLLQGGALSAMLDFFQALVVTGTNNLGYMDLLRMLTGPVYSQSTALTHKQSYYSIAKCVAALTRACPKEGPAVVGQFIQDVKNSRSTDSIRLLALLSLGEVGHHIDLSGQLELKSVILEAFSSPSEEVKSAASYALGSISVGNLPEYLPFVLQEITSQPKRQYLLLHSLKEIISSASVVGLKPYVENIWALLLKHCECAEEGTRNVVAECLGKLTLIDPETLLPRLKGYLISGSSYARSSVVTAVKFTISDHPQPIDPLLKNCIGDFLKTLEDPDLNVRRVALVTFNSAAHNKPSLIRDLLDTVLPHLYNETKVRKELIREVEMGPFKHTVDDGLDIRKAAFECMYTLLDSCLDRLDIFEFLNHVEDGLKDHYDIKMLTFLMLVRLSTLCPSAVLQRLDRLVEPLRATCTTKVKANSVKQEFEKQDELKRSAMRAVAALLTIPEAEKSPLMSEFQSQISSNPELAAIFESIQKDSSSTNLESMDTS

Consider “CKAP5_Q14008_1203_TQMSSCVAK (UniProt Q14008)”, for which the “probe-labelled cysteine peptide fold change” value (10 µM) amounted to 0.056.

As for “CLTC_Q00610_666_AVVHTHLLNPEWLVNYFGSLSVEDSLECLR (UniProt Q00610)”, the “probe-labelled cysteine peptide fold change” value is, setting by setting: (10 µM) 0.146; (50 µM) 0.368.

For the target “CHD1_O14646_376_NASPEDVEYYNCQQELTDDLHK (UniProt O14646)”, the “probe-labelled cysteine peptide fold change” value reads like this: (10 µM) -0.182; (50 µM) -0.155.

Take “BRAT1_Q6PJG6_54_TVTEGESSVVLLQEHPCLVELLSHVLK (UniProt Q6PJG6)”: the “probe-labelled cysteine peptide fold change” value (10 µM) was -0.343 and the “probe-labelled cysteine peptide fold change” value (50 µM) is -1.29.

“CCT8_P50990_148+149_KAHEILPNLVCCSAK (UniProt P50990)”: the “probe-labelled cysteine peptide fold change” value reads like this: (10 µM) 0.107; (50 µM) -1.12.

On to “BOD1L1_Q8NFC6_2694_NGEILAPPESLCGGKPSGIAELQR (UniProt Q8NFC6)”, for which the “probe-labelled cysteine peptide fold change” value by setting is: (10 µM) -0.213; (50 µM) -0.323.

In the case of “BRD7_Q9NPI1_646_KTDVAECGPGGS (UniProt Q9NPI1)”, the “probe-labelled cysteine peptide fold change” value is -0.0685 (10 µM) and 0.146 (50 µM).

Consider “CCAR1_Q8IX12_465_SCALAEDPQELR (UniProt Q8IX12)”, for which the “probe-labelled cysteine peptide fold change” value reads like this: (10 µM) 0.00763; (50 µM) 0.151.

Take “CDC45_O75419_31_VLLFVASDVDALCACK (UniProt O75419)”: the “probe-labelled cysteine peptide fold change” value reads like this: (10 µM) 0.0846; (50 µM) -0.132.

Turning to “BRPF1_P55201_413_ANCYTAFHVTCAQQAGLYMK (UniProt P55201)”, the “probe-labelled cysteine peptide fold change” value (10 µM) was -0.0225 and the “probe-labelled cysteine peptide fold change” value (50 µM) is -0.122.

With “BCLAF1_Q9NYF8_688_CDSADLRHDIDR (UniProt Q9NYF8)”, the “probe-labelled cysteine peptide fold change” value runs as follows: (10 µM) -0.675; (50 µM) -1.75.

“CCT4_P50991_120_AQDIEAGDGTTSVVIIAGSLLDSCTK (UniProt P50991)”: the “probe-labelled cysteine peptide fold change” value reads like this: (10 µM) 0.173; (50 µM) 0.244.

Turning to “CEP131_Q9UPN4_648_CEAVVAELK (UniProt Q9UPN4)”, the “probe-labelled cysteine peptide fold change” value reads like this: (10 µM) 0.0263; (50 µM) -0.274.

Regarding “CCAR2_Q8N163_644_GEASEDLCEMALDPELLLLRDDGEEEFAGAK (UniProt Q8N163)”, the “probe-labelled cysteine peptide fold change” value is, setting by setting: (10 µM) 0.116; (50 µM) 0.202.

As to “CCT8_P50990_347_LTPPVLEEMGHCDSVYLSEVGDTQVVVFKHEK (UniProt P50990)”, the “probe-labelled cysteine peptide fold change” value runs as follows: (10 µM) -0.15; (50 µM) -0.323.

In the case of “CCT7_Q99832_158_CAMTALSSK (UniProt Q99832)”, the “probe-labelled cysteine peptide fold change” value (10 µM) is 0.0449 and the “probe-labelled cysteine peptide fold change” value (50 µM) was -0.00995.

Consider “CASP8_Q14790_309+312+313_IYQLMDHSNMDCFICCILSHGDK (UniProt Q14790)”, for which the “probe-labelled cysteine peptide fold change” value reads like this: (10 µM) 0.0881; (50 µM) -1.31.

Regarding “BLM_P54132_444_YRPDSLDGPMEGDSCPTGNSMK (UniProt P54132)”, the “probe-labelled cysteine peptide fold change” value reads like this: (10 µM) -0.208; (50 µM) -0.421.

Regarding “BTAF1_O14981_1651_ILIFCQLK (UniProt O14981)”, the “probe-labelled cysteine peptide fold change” value reads like this: (10 µM) -0.0768; (50 µM) 0.152.

For the target “CCDC22_O60826_567_YLAALHENCSQLIQTIEDTGTIMR (UniProt O60826)”, the “probe-labelled cysteine peptide fold change” value stood at 0.507 (10 µM) and 0.935 (50 µM).

Regarding “CARS2_Q9HA77_526_QPLLEACDTLR (UniProt Q9HA77)”, the “probe-labelled cysteine peptide fold change” value (10 µM) turned out to be 0.163 and the “probe-labelled cysteine peptide fold change” value (50 µM) worked out at 0.255.

As to “CC2D1B_Q5T0F9_86_LAADCMR (UniProt Q5T0F9)”, the “probe-labelled cysteine peptide fold change” value by setting is: (10 µM) -0.00506; (50 µM) -0.411.

For “BUB1_O43683_698_LSQPAAGGVLTCEAELGVEACR (UniProt O43683)”, the “probe-labelled cysteine peptide fold change” value (10 µM) was found to be 0.0033 and the “probe-labelled cysteine peptide fold change” value (50 µM) amounted to 0.164.

With “BRMS1_Q9HCU9_136_NKYECELQGAK (UniProt Q9HCU9)”, the “probe-labelled cysteine peptide fold change” value reads like this: (10 µM) -0.259; (50 µM) 0.135.

For the target “CAPZA2_P47755_111_KEATDPRPCEVENAVESWR (UniProt P47755)”, the “probe-labelled cysteine peptide fold change” value is -0.209 (10 µM) and -0.166 (50 µM).

With “BLM_P54132_396_LLDCGNELLQQR (UniProt P54132)”, the “probe-labelled cysteine peptide fold change” value by setting is: (10 µM) 0.119; (50 µM) 0.105.

With “AXL_P30530_588_SELEDFLSEAVCMK (UniProt P30530)”, the “probe-labelled cysteine peptide fold change” value was -0.0637 (10 µM) and -0.202 (50 µM).

As to “BST1_Q10588_144_VADFLSWCR (UniProt Q10588)”, the “probe-labelled cysteine peptide fold change” value by setting is: (10 µM) 0.0714; (50 µM) 0.155.

For “CLTC_Q00610_328_KGQVLSVCVEEENIIPYITNVLQNPDLALR (UniProt Q00610)”, the “probe-labelled cysteine peptide fold change” value came out at 0.243 (10 µM) and 1.15 (50 µM).

With “CLIC4_Q9Y696_189_KFLDGNEMTLADCNLLPK (UniProt Q9Y696)”, the “probe-labelled cysteine peptide fold change” value by setting is: (10 µM) -0.0667; (50 µM) -0.583.

On to “CAND1_Q86VP6_1007_NCIGDFLK (UniProt Q86VP6)”, for which the “probe-labelled cysteine peptide fold change” value was 0.0435 (10 µM) and -0.151 (50 µM).

Consider “CBFA2T3_O75081_423_CQEADREELNHWAR (UniProt O75081)”, for which the “probe-labelled cysteine peptide fold change” value stood at 0.042 (10 µM) and 0.157 (50 µM).

Regarding “BAZ1B_Q9UIG0_338_LWCHVHLK (UniProt Q9UIG0)”, the “probe-labelled cysteine peptide fold change” value is 0.0758 (10 µM) and -0.443 (50 µM).

On to “CEPT1_Q9Y6K0_11_CGDSHPESPVGFGHMSTTGCVLNK (UniProt Q9Y6K0)”, for which the “probe-labelled cysteine peptide fold change” value is -2.02 (10 µM) and -2.15 (50 µM).

As to “CAD_P27708_1215_VIECNVR (UniProt P27708)”, the “probe-labelled cysteine peptide fold change” value (10 µM) amounted to 0.174 and the “probe-labelled cysteine peptide fold change” value (50 µM) turned out to be 0.123.

For “CLTC_Q00610_824_LPVVIGGLLDVDCSEDVIK (UniProt Q00610)”, the “probe-labelled cysteine peptide fold change” value (10 µM) is -0.0301 and the “probe-labelled cysteine peptide fold change” value (50 µM) was determined as 0.396.

Take “BCL7C_Q8WUZ0_211_RICPNAPDP (UniProt Q8WUZ0)”: the “probe-labelled cysteine peptide fold change” value by setting is: (10 µM) 0.0814; (50 µM) -0.667.

With “BRAT1_Q6PJG6_673_THCPYAVALPEVAPAQPLTEALR (UniProt Q6PJG6)”, the “probe-labelled cysteine peptide fold change” value reads like this: (10 µM) -0.481; (50 µM) -1.07.
